Results reported in article PMC5923123, “In Vitro and In Vivo Efficacy of a Novel and Long-Acting Fungicidal Azole, PC1244, on Aspergillus fumigatus Infection” (Antimicrobial Agents and Chemotherapy, 2018).

Tested on: four ITC-susceptible laboratory A. fumigatus strains (ATCC 1028, ATCC 10894, ATCC 13073, ATCC 16424)
Assay: CLSI M38-A MIC (visual)
Conditions: for MIC: Aspergillus fumigatus

| Structure (SMILES) | MIC [µg/mL] | fold more potent than VRC (MIC) (CLSI M38-A) [fold] |
| --- | --- | --- |
| CC[C@@H]([C@H](C)O)n1ncn(-c2ccc(N3CCN(c4ccc(OC[C@@H]5CO[C@@](Cn6cncn6)(c6ccc(F)cc6F)C5)cc4)CC3)cc2)c1=O [Posaconazole, posaconazole] | 0.047 (≈ 0.0671 µM) | – |
| Cc1cc(N2CCN(c3ccc(C(=O)N[C@H]4CCCC[C@@H]4O)cc3)CC2)ccc1OC[C@@H]1CO[C@@](Cn2cncn2)(c2ccc(F)cc2F)C1 [PC1244, 4-(4-(4-(((3R,5R)-5-((1H-1,2,4-triazol-1-yl)methyl)-5-(2,4-difluorophenyl)tetrahydrofuran-3-yl)methoxy)-3-methylphenyl)piperazin-1-yl)-N-((1S,2S)-2-hydroxycyclohexyl)benzamide] | 0.063 (≈ 0.0917 µM) | 8 |
| C[C@@H](c1ncncc1F)[C@](O)(Cn1cncn1)c1ccc(F)cc1F [Voriconazole, voriconazole] | 0.5 (≈ 1.43 µM) | – |

In brackets after ≈: the same amount, converted by molar mass.
